Experimental data: patent CN114395046A (UNIV NINGXIA MEDICAL; UNIV GUANGDONG MEDICAL, dated 2022)

Target: T1, PD-1抗原 (PD-1 protein) (UniProt Q15116 fragment, limits assumed)
T1 construct: The construct is unknown; also called PD-1蛋白
Test: SPR (Biacore 8K); recombinant nanobody injected as analyte, 100 nM to 0.391 nM in 2-fold dilutions, over PD-1 protein

T1 sequence (Q15116 25-167 limits assumed): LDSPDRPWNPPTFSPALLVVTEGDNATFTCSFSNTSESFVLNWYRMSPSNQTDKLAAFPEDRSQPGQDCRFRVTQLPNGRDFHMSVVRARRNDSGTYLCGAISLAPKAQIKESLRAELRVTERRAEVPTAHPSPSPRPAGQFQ

Kd: 3.88 nM
B1: 抗PD-1的重组纳米抗体 (anti-PD-1 nanobody SEQ ID No.1 + GGGGS linker + human IgG Fc) (Fc fusion)
chain: QVQLQELGETRCRHGGSLRLSCKVSGYTQRSYCLGWLRQAPGNEREAVAVLQHSGNFRHYADSVQGRFVISQDYTDNTVYLAMNNLKSEDAAMYYCAAALGTCVGLRVSQFNYWGQGTQVTVSSGGGGS[human IgG1 Fc with changes left out]
notes: It was expressed in E. coli Arctic Express from pCZN1 and purified from inclusion bodies on a Ni column; also called 重组抗体; 融合蛋白
